# Results as given in PubChem BioAssay AID445 (National Center for Advancing Translational Sciences (NCATS), 2006).
# Among all 110,000 compounds or so, about 40 (0.04%) were called active. The inconclusive results got no clear call from the source; some entries with a clear call stand among them for comparison. Calls come from the whole dose curve; as a rule, active = well fitted curve in the direction sought with a large enough effect in the signal ratio (not every such curve was filed as active); inconclusive = small, poorly fitted or top-dose-only effect, or a change in a side signal; inactive = flat fitted curve, though single readings scatter; the % refers to the signal ratio. A potency beside an inconclusive call is a rough fit, not a confirmed value.
# Experiment: IkB Signaling;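 for IkBa stabilization activation: 0% = basal untreated cells and 100% = reference inhibitor full response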
# Details: ABC-DLBCL IkBa-CBG/CBR dual luciferase ratio (green luciferase fused to IkBa over red control in OCI-Ly3 lymphoma cells), 4 h; IkBa stabilization activation: at 57.1 µM (top of the series), scaled: untreated 0%, proteasome inhibitor 100% unless noted
# In short: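 Luminescence ratio of IκBα-fused green versus native red beetle luciferase in OCI-Ly3 cells, 4 h post-doxycycline with compound; red signal alone, scaled from basal (0%) to zero light (-100%), flagged nonspecific or cytotoxic effects.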
# Potency is the fitted concentration of half-maximal effect.
Compound,IkBa stabilization activation,Potency
COC(=O)CS(=O)(=O)c1nnc([C@H](Cc2ccccc2)NC(=O)OC(C)(C)C)o1,inconclusive: -4.12% [signal inhibitor],–
O=C(Nc1ccc(Cl)cc1Cl)c1cc(S(=O)(=O)N2CCc3ccccc32)ccc1F,inconclusive: 0.32% [signal inhibitor],–
CCc1ccc(C2CC(=O)Nc3cc4c(cc32)OCO4)cc1 (configuration not stated),inconclusive: 10.3% [signal inhibitor],–
CC(C)n1c(=N)c(C(=O)NCCc2ccccc2)cc2c(=O)n3ccccc3nc21,inactive: -3.68%,–
Cc1cccc(N2CCN(C(=O)c3c(C)oc4ncnc(N5CCCCC5)c34)CC2)c1C,inconclusive: -1.84% [signal inhibitor],–
Cc1ccc(/C=C/c2nc3ccccc3[nH]2)cc1,–,"inconclusive: 3.98 µM [signal inhibitor, single point]"
CC(C)COc1ccc(C(=O)N(Cc2ccc(N(C)C)cc2)Cc2ccco2)cc1,inconclusive: 0.647% [signal inhibitor],–
O=C(CN1C(=O)c2ccccc2S1(=O)=O)NCCSc1ccccc1,inactive: 1.84%,–
CC1CCCCN1c1nnc(NC(=O)Nc2ccccc2F)s1 (configuration not stated),inconclusive: 3.12% [signal inhibitor],–
CCC(c1nnnn1Cc1ccccc1)N(Cc1ccco1)Cc1cc2cc(OC)ccc2[nH]c1=O (configuration not stated),–,active: 3.98 µM
CCn1c(C)nc2c(=O)oc3ccccc3c21,inconclusive: 2.97% [signal inhibitor],–
CC1CCCN(C(=O)c2cc3c(Cl)nc4ccccc4c3s2)C1 (configuration not stated),inconclusive: 2.72% [signal inhibitor],–
O=C(c1ccco1)c1cn(CCOc2ccc(F)cc2)c2ccccc12,–,inconclusive: 3.16 µM [signal inhibitor]
Cc1ccc(OCc2nc3ccccc3n2CCOc2ccc(Cl)cc2)cc1,inconclusive: 1.32% [signal inhibitor],–
CC1(C)[C@@H]2CC[C@@](C)(C2)[C@H]1OC(=O)c1ccccc1C(=O)O,"inactive: -0.446% [at 11.4 µM, scaled: untreated 0%, proteasome inhibitor 100%]",–
CCCc1nc2ccccc2c(=O)n1/N=C/c1ccc(O)cc1,inactive: 3.54%,–
Cc1ccc(-c2nc(SCC(=O)NCc3ccco3)c3c(=O)n(C)c(=O)n(C)c3n2)cc1,inactive: 0.452%,–
CCc1cccc(CC)c1NC(=O)CN1C(=O)C(=O)c2ccccc21,inconclusive: 11.6% [signal activator],–
CC(C)c1ccc(NC(=O)Cn2c(=O)n(CCc3ccccc3)c(=O)c3ccccc32)cc1,inconclusive: 5.13% [signal inhibitor],–
O=S(=O)(c1ccc(Oc2ncnc3scc(-c4ccccc4)c23)cc1)N1CCOCC1,inconclusive: 2.2% [signal inhibitor],–
Cc1ccc(C(=O)Nc2cccc(-c3nc4ccccc4o3)c2)c(Cl)c1,inconclusive: -0.886% [signal inhibitor],–
Cc1ccc(-c2nnc(Nc3cccc(O)c3)c3ccccc23)cc1S(=O)(=O)N1CCN(C)CC1,inconclusive: 14.7% [signal inhibitor],–
Cc1ccccc1OCC(O)Cn1c(=N)n(CCN2CCCCC2)c2ccccc21 (configuration not stated),inconclusive: 0.355% [signal inhibitor],–

Compound,IkBa stabilization activation,Potency
Cc1ccc(NC(=O)C2CCN(c3nc4ccccc4[nH]3)CC2)c(C)c1,inactive: 0.312%,–
COC(=O)c1cnc(N2CCN(c3ccccc3F)CC2)c2ccccc12,inconclusive: 0.121% [signal inhibitor],–
COCCN1C(=O)c2[nH]nc(-c3cc(C)ccc3O)c2C1c1ccc(C(C)C)cc1 (configuration not stated),inconclusive: -2.91% [signal inhibitor],–
Cc1cccc(N2CCN(C(=O)CCc3c(C)nc4ncnn4c3C)CC2)c1C,inconclusive: 1.14% [signal inhibitor],–
CCc1ccccc1NC(=O)c1cc(S(=O)(=O)N2CCCC2)cn1C,inconclusive: 2.37% [signal inhibitor],–
CC(C)c1cccc(C(C)C)c1NC1=NS(=O)(=O)c2ccccc21,inactive: 2.79%,–
COc1ccccc1NC(=O)NCCN1CCN(c2cccc(Cl)c2)CC1,inactive: 4.34%,–
N=c1ccn2c(n1)O[C@H]1[C@@H](OP(=O)(O)O)[C@H](CO)O[C@H]12,"inactive: 0.417% [at 11.4 µM, scaled: untreated 0%, proteasome inhibitor 100%]",–
Cc1cccc(C)c1-n1ncc(C(=O)N2CCN(c3ccccc3)CC2)c1C1CCN(C(=O)OC(C)(C)C)CC1,inconclusive: 3.12% [signal inhibitor],–
COc1ccc(C2=Nn3c(nnc3-c3ccccc3OC)SC2)cc1OC,inactive: 2.73%,–
O=C(c1ccc(CSc2nc3ccncc3n2Cc2cccc(F)c2)cc1)N1CCCCCC1,inconclusive: 5.87% [signal inhibitor],–
Cc1cncn1CCc1nc2c3ccccc3nc(SCC(=O)Nc3cccc(Cl)c3)n2n1,inconclusive: -1.91% [signal inhibitor],–
O=c1c(Cc2ccccc2O)c(O)nc2n1CCCS2,inconclusive: -1.28% [signal inhibitor],–
CN(C(=O)CSc1cn(CC(=O)N2CCOCC2)c2ccccc12)c1ccccc1,inconclusive: 2% [signal inhibitor],–
Cn1c(C(=O)Nc2ccc3c(c2)OCCO3)cc2sccc21,inconclusive: 1.49% [signal inhibitor],–
O=c1c(-c2cc(F)cc(F)c2)nc2cncnc2n1Cc1ccccc1Cl,"inactive: 2.18% [at 11.4 µM, scaled: untreated 0%, proteasome inhibitor 100%]",–
CCCN(C(=O)c1noc2c1COc1ccc(C)cc1-2)c1ccc(Cl)c(Cl)c1,inactive: -0.128%,–
Clc1ccc(C2=Nn3c(nnc3-c3cccnc3)SC2)s1,inactive: 1.57%,–
COc1cc(NC(=O)CC2C(=O)N(c3cccc(C)c3)C(=O)N2Cc2ccc(F)cc2)cc(OC)c1 (configuration not stated),inconclusive: 1.85% [signal inhibitor],–
CC1=C(C#N)C(c2cn(-c3ccccc3)nc2-c2cccs2)C(C#N)=C(C)N1,inconclusive: 2.64% [signal inhibitor],–
COc1cc(NS(=O)(=O)c2ccc3[nH]c4c(c3c2)CCCCCC4)cc(OC)c1,inconclusive: 2.05% [signal inhibitor],–
CCc1ccc(NC(=O)C(CC)n2c(=O)c(C(F)(F)F)nc3ccccc32)cc1 (configuration not stated),inconclusive: 0.161% [signal inhibitor],–
Cc1nc2nc(SCC(=O)NCc3ccccc3Cl)nn2c(C)c1Cc1ccccc1,inconclusive: -1.11% [signal inhibitor],–

Compound,IkBa stabilization activation,Potency
CCOC(=O)Cn1c(=O)c2c(nc3n2CCN3c2ccc(CC)cc2)n(C)c1=O,inconclusive: -0.735% [signal inhibitor],–
CN(C)c1ncc2nc(-c3ccc(Cl)cc3)c(=O)n(C)c2n1,"inactive: -3.45% [at 11.4 µM, scaled: untreated 0%, proteasome inhibitor 100%]",–
CN1/C(=C/C=N/n2cnnc2)C(C)(C)c2ccccc21,inactive: -0.226%,–
Cc1ccc(-c2nnc(Nc3ccc(O)cc3)c3ccccc23)cc1S(=O)(=O)N1CCOCC1,–,inconclusive: 3.16 µM [signal inhibitor]
COc1ccc(-c2cc(C(=O)Nc3c(C)nn(Cc4ccc(C)cc4)c3C)no2)cc1OC,inconclusive: 7.03% [signal inhibitor],–
CCOC(=O)CSc1nc2ccccc2c(=O)n1C1CCCC1,inactive: 0.305%,–
Cc1ccc(NC(=O)CSc2cn(CC(=O)N3CCCCCC3)c3ccccc23)cc1,inconclusive: 13.6% [signal inhibitor],–
Cc1cccc(N2CCN(C(=O)c3cnn(-c4cccc(Cl)c4C)c3C3CCNCC3)CC2)c1C,inconclusive: -1.53% [signal inhibitor],–
O=C(NCC(c1cccnc1)N1CCc2ccccc2C1)C(=O)Nc1ccc(Cl)cc1 (configuration not stated),inconclusive: 3.53% [signal inhibitor],–
Cc1ccc(-c2noc(CSc3nnc(Cc4ccccc4)n3-c3cccc(C)c3)n2)cc1,inconclusive: 3.47% [signal inhibitor],–
CCCc1nc2ccccc2n2c(-c3ccc(C)cc3)c3c(=O)n(C)c(=O)n(C)c3c12,inconclusive: -0.302% [signal inhibitor],–
CC(C)c1ccc(NC(=O)c2cccc3c2C(=O)N(C2CCCCC2)C3)cc1,–,"inconclusive: 10 µM [signal inhibitor, single point]"
COc1cc(/C=N/n2c(SC)nnc(C(C)(C)C)c2=O)ccc1O,inactive: 2.83%,–
CC(=O)c1cccc(NC(=O)c2c(N3CCCC3=O)c3cc(F)ccc3n2C)c1,inconclusive: -1.41% [signal inhibitor],–
CCOCCCNC(=O)C(c1ccc(C)cc1)N(Cc1cccs1)C(=O)c1ccc(NC(C)=O)cc1 (configuration not stated),inconclusive: 4.16% [signal inhibitor],–
CCOC(=O)c1sc(NC(=O)c2cccs2)cc1C,inactive: 0.651%,–
O=S(=O)(c1ccc2c(c1)OCCO2)N(Cc1ccc(F)cc1)Cc1nnc(-c2cccs2)o1,inactive: 3.79%,–
CCN(CC)C(=O)c1sc2c(c1C)c(=O)n(Cc1ccccc1)c(=O)n2Cc1ccc(Cl)cc1,inconclusive: -0.431% [signal inhibitor],–
O=C(CCS(=O)(=O)c1nc(-c2ccc3c(c2)OCO3)cc(C(F)(F)F)n1)Nc1ccccc1F,–,"inconclusive: 5.01 µM [signal inhibitor, single point]"
O=c1oc2ccccc2c(O)c1CN1CCCCC1,–,"inconclusive: 0.631 µM [signal inhibitor, full curve]"
CN(C)Cc1ccc(C(C)(C)C)cc1-c1cc(C(C)(C)C)ccc1CN(C)C,"inactive: 2.21% [at 11.4 µM, scaled: untreated 0%, proteasome inhibitor 100%]",–
